From PubChem BioAssay AID445 (National Center for Advancing Translational Sciences (NCATS), 2006)
Among all 110,000 compounds or so, about 40 (0.04%) were called active. The inconclusive results got no clear call from the source; some entries with a clear call stand among them for comparison. Calls come from the whole dose curve; as a rule, active = well fitted curve in the direction sought with a large enough effect in the signal ratio (not every such curve was filed as active); inconclusive = small, poorly fitted or top-dose-only effect, or a change in a side signal; inactive = flat fitted curve, though single readings scatter; the % refers to the signal ratio. A potency beside an inconclusive call is a rough fit, not a confirmed value.

Assay: IkB Signaling;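 for IkBa stabilization activation: 0% = basal untreated cells and 100% = reference inhibitor full response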
Details: ABC-DLBCL IkBa-CBG/CBR dual luciferase ratio (green luciferase fused to IkBa over red control in OCI-Ly3 lymphoma cells), 4 h; IkBa stabilization activation: at 57.1 µM (top of the series), scaled: untreated 0%, proteasome inhibitor 100% unless noted
Procedure, shortened: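 In this assay, an IκBα–CBG68 fusion accumulates when IKK-driven degradation is blocked; native CBR normalizes for cell number. OCI-Ly3 cells were treated 4 h with compound and doxycycline, then green and red light read after Chroma-Glo addition.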
Potency is the fitted concentration of half-maximal effect.

SMILES | IkBa stabilization activation | Potency
CCOc1ccc(-c2cc(C(=O)NCc3ccccc3)c3c(-c4ccc(CC)cc4)[nH]nc3n2)cc1 | inactive: -1.27% | –
Oc1ccc(Cc2cc(Cl)cc(Cl)c2O)cc1Cl | inactive: 1.56% [at 11.4 µM, scaled: untreated 0%, proteasome inhibitor 100%] | –
CCCn1c2ccccc2c2cc(C(=O)O)ccc21 | inconclusive: 1.4% [signal inhibitor] | –
Nc1ncnc2nn([C@H]3O[C@@H](CO)[C@@H](O)[C@H]3O)nc12 | inactive: 0.165% [at 11.4 µM, scaled: untreated 0%, proteasome inhibitor 100%] | –
CC(C)(C)C(=O)Nc1c(C(=O)N2CCN(c3ccc(F)cc3)CC2)oc2ccccc12 | inconclusive: 6.36% [signal inhibitor] | –
CCn1c(CN2CCOCC2)nc2cc(NC(=O)c3cc(OC)c(OC)c(OC)c3)ccc21 | inconclusive: 2.45% [signal inhibitor] | –
Clc1ccc(CSc2ncnc3c2ncn3[C@@H]2CCCCO2)cc1 | inactive: 0.19% [at 11.4 µM, scaled: untreated 0%, proteasome inhibitor 100%] | –
CSc1nn(Cc2ccc(Br)cc2)c(N(C(C)=O)C(C)=O)c1S(=O)(=O)c1ccccc1 | inconclusive: -3.44% [signal inhibitor] | –
O=c1c2ccccc2nc(-c2cccc(Cl)c2)n1O | inconclusive: 10.6% [signal inhibitor] | –
COc1ccc(-c2cc(C(=O)NCc3ccccc3)c3c(-c4ccccc4)[nH]nc3n2)cc1 | inconclusive: 5.28% [signal inhibitor] | –
CC1CCN(C(=O)Cn2ncc3c4ccccc4n(Cc4ccc(Cl)cc4)c3c2=O)CC1 | inconclusive: 1.13% [signal inhibitor] | –
CCC(c1nnnn1Cc1ccco1)N(CCc1ccccc1)Cc1cc2ccc(OC)cc2[nH]c1=O (configuration not stated) | inconclusive: 2.82% [signal inhibitor] | –
CCOc1ccc(NC(=O)c2ccc(F)c(S(=O)(=O)NCc3ccc4c(c3)OCO4)c2)cc1 | inconclusive: 1.86% [signal inhibitor] | –
CCOc1ccc(NC(=O)CSc2nnc(-c3ccc(C)cc3)c(-c3ccc(C)cc3)n2)cc1 | inconclusive: -0.0598% [signal inhibitor] | –
O=C(NCCCc1nc2ccccc2n1Cc1ccc(Cl)cc1)c1ccco1 | inactive: -3.29% | –
Cc1cc(C(=O)Nc2nc3ccc(S(C)(=O)=O)cc3s2)c(C)o1 | inactive: 2.38% | –
O=C(Cn1c(=O)nc(-c2ccccc2)c2ccccc21)NCCCc1ccccc1 | inconclusive: 3% [signal inhibitor] | –
COc1ccc(CCNC(=O)C(=O)NCC(c2ccco2)S(=O)(=O)c2ccccc2)cc1OC (configuration not stated) | inactive: -2.25% | –
COc1ccc(CCNC(=O)CS(=O)Cc2nc(-c3ccc(C)cc3)oc2C)c(OC)c1 (configuration not stated) | inconclusive: -1.03% [signal inhibitor] | –
O=C(CSc1nnc(SCc2ccc(Cl)cc2)s1)N1CCOCC1 | inconclusive: 1.8% [signal inhibitor] | –
COc1ccc(-n2c(COc3ccccc3)nnc2SCc2ccc(C#N)cc2)cc1 | inconclusive: 0.133% [signal inhibitor] | –
O=C(c1ccncc1)N1CCC[C@@]2(CCN(c3ccncc3)C2)C1 | inactive: 3.09% [at 11.4 µM, scaled: untreated 0%, proteasome inhibitor 100%] | –
Cc1ccccc1N1CCN(S(=O)(=O)c2nnc(NC(=O)c3ccc(Cl)cc3)s2)CC1 | inconclusive: 0.969% [signal inhibitor] | –

SMILES | IkBa stabilization activation | Potency
COc1ccc(C2C3=C(CC(c4ccco4)CC3=O)Nc3ccccc3N2C(C)=O)cc1 (configuration not stated) | inactive: -0.316% | –
Cc1ccccc1Cn1cnc2c(cnn2C(C)(C)C)c1=O | inactive: 1.48% | –
CCc1cccc(NCc2ccccc2-c2nnc(-c3ccccc3Cl)o2)c1 | inactive: 0.985% | –
CCSc1ncc(Cl)c(C(=O)N2CCN(c3ccc(OC)cc3)CC2)n1 | inconclusive: -0.654% [signal inhibitor] | –
C=Cc1ccc(Cn2c(=O)n(-c3cccc(C)c3)c(=O)c3c2c2cc(C)ccc2n3C)cc1 | inconclusive: 1.39% [signal inhibitor] | –
O=S(=O)(c1cccc(Cl)c1)c1nnn2c1nc(NC1CCCCCC1)c1sccc12 | inactive: -2.68% | –
CCN(CC)CCCNC(=O)c1ccc2nc(CCc3ccccc3)oc2c1 | inconclusive: -3.7% [signal inhibitor] | –
Fc1ccccc1CSc1nnc(-c2cnccn2)n1Cc1ccco1 | inactive: 0.0741% | –
Cc1cc(OCC(=O)N2CCOCC2)ccc1NC(=O)C1CCCCC1 | inactive: -0.655% | –
Cc1ccc(S(=O)(=O)c2c(C)nn(-c3ccccc3)c2OC(=O)c2ccccc2F)cc1 | inconclusive: 3.11% [signal inhibitor] | –
COc1ccccc1-c1cc(C(=O)Nc2cc(Cl)ccc2O)no1 | – | inconclusive: 0.0501 µM [signal inhibitor, full curve]
O=C(Nc1ccc(F)cc1F)c1ccc2c(=O)n3c(nc2c1)CCCCC3 | inconclusive: 3.35% [signal inhibitor] | –
Cc1c(C(=O)N(C)c2cccc(C(F)(F)F)c2)sc2nc3n(c(=O)c12)CCCCC3 | inconclusive: -0.619% [signal inhibitor] | –
CCOCC(=O)Nc1nc2ccc(OCC)cc2s1 | inactive: 3.36% | –
CSc1nnc2n(-c3ccccc3)c(=O)c3c4c(sc3n12)CCC4 | inactive: -2.69% | –
COc1cccc(-n2c(=O)c3sc4ccccc4c3n(CC(=O)Nc3cccc(Cl)c3)c2=O)c1 | inconclusive: 5.59% [signal inhibitor] | –
Fc1ccc(CNc2nc3ccc(Cl)cc3n3nnnc23)cc1 | inconclusive: 3.67% [signal inhibitor] | –
O=S(=O)(Nc1cccc(-c2ccc(N3CCCCC3)nn2)c1)c1ccc(Cl)s1 | inconclusive: 3.61% [signal inhibitor] | –
c1coc(-c2nnc(-c3ccc4c(c3)OCO4)o2)c1 | inactive: 4.01% | –
O=C(Nc1cccc(C(F)(F)F)c1)Nc1nnc(N2CCCCCC2)s1 | inconclusive: 0.757% [signal inhibitor] | –
COc1ccccc1N1CCN(C(=O)c2cc(-c3ccc(C)c(F)c3)on2)CC1 | inconclusive: 12.8% [signal inhibitor] | –
COc1cccc(-c2nc(CS(=O)(=O)CC(=O)N3CCN(c4ccccn4)CC3)c(C)o2)c1 | inconclusive: 9.28% [signal inhibitor] | –
Cc1cc(N2CCN(C(=O)c3ccco3)CC2)n2nc(C)c(-c3ccc(Cl)cc3)c2n1 | inactive: 0.361% | –

SMILES | IkBa stabilization activation | Potency
COc1cccc2cc(C(=O)Nc3ccc(CC(=O)O)cc3)c(=O)oc12 | – | inconclusive: 25.1 µM [signal inhibitor, partial curve]
CCCCN1CC(c2nc3ccccc3n2CCCCOc2cc(C)cc(C)c2)CC1=O (configuration not stated) | inconclusive: -1.72% [signal inhibitor] | –
CCOc1ccc(S(=O)(=O)N2Cc3ccccc3CC2C(=O)Nc2ccc(NC(C)=O)cc2)cc1 (configuration not stated) | inconclusive: 6.46% [signal inhibitor] | –
Cc1cc2nc(SC(C)C(=O)O)[nH]c2cc1C (configuration not stated) | inactive: -0.091% | –
CCN(C(=O)CCc1nc(-c2ccc(C)cc2)no1)c1cccc(C(F)(F)F)c1 | inconclusive: 9.57% [signal inhibitor] | –
c1coc(-c2nc(-c3ccco3)c(-c3ccco3)nc2-c2ccco2)c1 | inconclusive: 15.9% | –
CCc1ccc(NC(=O)CSc2nnc3[nH]c(=O)cc(-c4ccccc4)n23)cc1 | inactive: 3.41% | –
NCCSCCc1ccccc1 | inactive: -0.808% [at 11.4 µM, scaled: untreated 0%, proteasome inhibitor 100%] | –
COc1ccc(C(=O)Nc2ccc(S(=O)(=O)Nc3cc(C)nc(C)n3)cc2)cc1 | inconclusive: 3.85% [signal inhibitor] | –
COc1cc(CNc2ccc3[nH]c(=O)[nH]c3c2)ccc1OCc1ccc(F)cc1Cl | inconclusive: -0.165% [signal inhibitor] | –
COC(=O)c1ccc2c(=O)n3nc(Nc4ccc(F)cc4F)sc3nc2c1 | inconclusive: 2.37% [signal inhibitor] | –
COc1ccc(CN2CCc3c(c(=O)n4ncc(C(=O)N5CCN(c6ccccc6F)CC5)c4n3C)C2)cc1 | inconclusive: 1.66% [signal inhibitor] | –
CS(=O)(=O)N(Cc1ccccc1)c1ccc(C(=O)Nc2cccc(Cl)c2)cc1 | – | inconclusive: 31.6 µM [signal inhibitor]
Cc1cccc(N2CCN(C(=O)c3nn(C)c4c3CS(=O)(=O)c3ccccc3-4)CC2)c1C | inconclusive: -1.63% [signal inhibitor] | –
COc1ccc(Cn2ccc3nc(C)c(C(=O)N4CCN(c5cccc(OC)c5)CC4)cc3c2=O)cc1 | inconclusive: 4.45% [signal inhibitor] | –
CCCCC1CCC(C(=O)N2CC(=O)Nc3ccc(C)cc3C2c2ccc(F)cc2)CC1 (configuration not stated) | inactive: -0.3% | –
COc1ccc(NC(=O)c2c(NC(=O)C(F)(F)F)sc3c2CCCCC3)cc1 | inconclusive: -6.75% [signal inhibitor] | –
Cc1ncc(CO)c2c1Oc1nc(-c3ccc(Cl)cc3)nc(SCC(=O)N3CCCCC3)c1C2 | inconclusive: 0.0869% [signal inhibitor] | –
c1csc(CNc2nc(-c3ccoc3)nc3ccccc23)c1 | inactive: 0.551% [at 11.4 µM, scaled: untreated 0%, proteasome inhibitor 100%] | –
Cc1cccc(NC(=O)CSc2nc3ccc(NC(=O)COc4ccccc4C)cc3s2)c1 | inconclusive: 4.43% [signal inhibitor] | –
CCCn1c(=O)[nH]c(=O)c2c1nc(-c1ccc3c(c1)OCCO3)n2CCN1CCOCC1 | inactive: -0.0527% | –
